The source gives many values for each of these; only a part stands here.
Experiments:
Assay type in all cases: ADME, organism-based, Macaca mulatta
[1] = Drug level in normal rhesus monkey thalamus assessed as standard uptake value at 96.3 MBq, iv after 125 mins by microPET; conditions: in vivo
[2] = Drug level in normal rhesus monkey white matter assessed as standard uptake value at 96.3 MBq, iv after 85 mins by microPET; conditions: in vivo
[3] = Drug level in normal rhesus monkey parietal cortex assessed as standard uptake value at 96.3 MBq, iv after 75 mins by microPET; conditions: in vivo, 1.25 h
[4] = Drug level in normal rhesus monkey white matter assessed as standard uptake value at 96.3 MBq, iv after 175 mins by microPET; conditions: in vivo
[5] = Drug level in normal rhesus monkey frontal cortex assessed as standard uptake value at 96.3 MBq, iv after 105 mins by microPET; conditions: in vivo, 1.75 h
[6] = Drug level in normal rhesus monkey cerebellum assessed as standard uptake value at 96.3 MBq, iv after 12 mins by microPET; conditions: in vivo, 0.2 h
[7] = Drug level in normal rhesus monkey frontal cortex assessed as standard uptake value at 96.3 MBq, iv after 85 mins by microPET; conditions: in vivo
[8] = Drug level in normal rhesus monkey pons assessed as standard uptake value at 96.3 MBq, iv after 175 mins by microPET; conditions: in vivo
[9] = Drug level in normal rhesus monkey frontal cortex assessed as standard uptake value at 96.3 MBq, iv after 52.5 mins by microPET; conditions: in vivo, 0.875 h
[10] = Drug level in normal rhesus monkey thalamus assessed as standard uptake value at 96.3 MBq, iv after 6 mins by microPET; conditions: in vivo, 0.1 h
[11] = Drug level in normal rhesus monkey white matter assessed as standard uptake value at 96.3 MBq, iv after 105 mins by microPET; conditions: in vivo, 1.75 h
[12] = Drug level in normal rhesus monkey pons assessed as standard uptake value at 96.3 MBq, iv after 145 mins by microPET; conditions: in vivo
[13] = Drug level in normal rhesus monkey frontal cortex assessed as standard uptake value at 96.3 MBq, iv after 27.5 mins by microPET; conditions: in vivo
[14] = Drug level in normal rhesus monkey cerebellum assessed as standard uptake value at 96.3 MBq, iv after 65 mins by microPET; conditions: in vivo
[15] = Drug level in normal rhesus monkey cerebellum assessed as standard uptake value at 109.4 MBq, iv after 0.375 mins by microPET; conditions: in vivo, 22 s
[16] = Drug level in normal rhesus monkey parietal cortex assessed as standard uptake value at 109.4 MBq, iv after 93 mins by microPET; conditions: in vivo, 1.55 h
[17] = Drug level in normal rhesus monkey pons assessed as standard uptake value at 109.4 MBq, iv after 42.5 mins by microPET; conditions: in vivo
[18] = Drug level in normal rhesus monkey cerebellum assessed as standard uptake value at 109.4 MBq, iv after 3.5 mins by microPET; conditions: in vivo
[19] = Drug level in normal rhesus monkey parietal cortex assessed as standard uptake value at 109.4 MBq, iv after 105 mins by microPET; conditions: in vivo, 1.75 h
[20] = Drug level in normal rhesus monkey thalamus assessed as standard uptake value at 109.4 MBq, iv after 27.5 mins by microPET; conditions: in vivo
[21] = Drug level in normal rhesus monkey cerebellum assessed as standard uptake value at 109.4 MBq, iv after 63 mins by microPET; conditions: in vivo, 1.05 h
[22] = Drug level in normal rhesus monkey frontal cortex assessed as standard uptake value at 109.4 MBq, iv after 12.5 mins by microPET; conditions: in vivo
[23] = Drug level in normal rhesus monkey parietal cortex assessed as standard uptake value at 109.4 MBq, iv after 0.125 mins by microPET; conditions: in vivo, 7 s
[24] = Drug level in normal rhesus monkey thalamus assessed as standard uptake value at 109.4 MBq, iv after 63 mins by microPET; conditions: in vivo, 1.05 h
[25] = Drug level in normal rhesus monkey frontal cortex assessed as standard uptake value at 109.4 MBq, iv after 42.5 mins by microPET; conditions: in vivo
[26] = Drug level in normal rhesus monkey thalamus assessed as standard uptake value at 81.2 MBq, iv after 105 mins by microPET; conditions: in vivo, 1.75 h
[27] = Drug level in normal rhesus monkey thalamus assessed as standard uptake value at 81.2 MBq, iv after 155 mins by microPET; conditions: in vivo
[28] = Drug level in normal rhesus monkey cerebellum assessed as standard uptake value at 81.2 MBq, iv after 12 mins by microPET; conditions: in vivo, 0.2 h
[29] = Drug level in normal rhesus monkey white matter assessed as standard uptake value at 81.2 MBq, iv after 105 mins by microPET; conditions: in vivo, 1.75 h
[30] = Drug level in normal rhesus monkey pons assessed as standard uptake value at 81.2 MBq, iv after 42.5 mins by microPET; conditions: in vivo
[31] = Drug level in normal rhesus monkey cerebellum assessed as standard uptake value at 81.2 MBq, iv after 42.5 mins by microPET; conditions: in vivo
[32] = Drug level in normal rhesus monkey cerebellum assessed as standard uptake value at 81.2 MBq, iv after 155 mins by microPET; conditions: in vivo
[33] = Drug level in normal rhesus monkey white matter assessed as standard uptake value at 81.2 MBq, iv after 14 mins by microPET; conditions: in vivo
[34] = Drug level in normal rhesus monkey cerebellum assessed as standard uptake value at 81.2 MBq, iv after 95 mins by microPET; conditions: in vivo
[35] = Drug level in normal rhesus monkey thalamus assessed as standard uptake value at 81.2 MBq, iv after 65 mins by microPET; conditions: in vivo

## CN(C)c1ccc2nc(-c3ccc([18F])cc3)sc2c1
[1]
  SUV: 1.99
[2]
  SUV: 1.5
[3]
  SUV: 1.5
[4]
  SUV: 1.59
[5]
  SUV: 1.51
[6]
  SUV: 1.64
[7]
  SUV: 1.72
[8]
  SUV: 1.87
[9]
  SUV: 2.05
[10]
  SUV: 1.95
[11]
  SUV: 1.56
[12]
  SUV: 1.8
[13]
  SUV: 2.07
[14]
  SUV: 1.18

## Nc1ccc2nc(-c3ccc([18F])cc3)sc2c1
[15]
  SUV: 0.6
[16]
  SUV: 3.75
[17]
  SUV: 4.97
[18]
  SUV: 5.85
[19]
  SUV: 3.68
[20]
  SUV: 5.5
[21]
  SUV: 2.99
[22]
  SUV: 5.29
[23]
  SUV: 0.01
[24]
  SUV: 5.35
[25]
  SUV: 4.93

## CNc1ccc2nc(-c3ccc([18F])cc3)sc2c1
[26]
  SUV: 5.136
[27]
  SUV: 5.03
[28]
  SUV: 2.575
[29]
  SUV: 4.114
[30]
  SUV: 5.62
[31]
  SUV: 2.237
[32]
  SUV: 1.469
[33]
  SUV: 3.424
[34]
  SUV: 1.712
[35]
  SUV: 5.637
